Source: article PMC12136788
The list shows a part of the results.

T1: UNK ZnF1-6 (called full-length) (human, UniProt Q9C0B0 30-357)
T1 sequence: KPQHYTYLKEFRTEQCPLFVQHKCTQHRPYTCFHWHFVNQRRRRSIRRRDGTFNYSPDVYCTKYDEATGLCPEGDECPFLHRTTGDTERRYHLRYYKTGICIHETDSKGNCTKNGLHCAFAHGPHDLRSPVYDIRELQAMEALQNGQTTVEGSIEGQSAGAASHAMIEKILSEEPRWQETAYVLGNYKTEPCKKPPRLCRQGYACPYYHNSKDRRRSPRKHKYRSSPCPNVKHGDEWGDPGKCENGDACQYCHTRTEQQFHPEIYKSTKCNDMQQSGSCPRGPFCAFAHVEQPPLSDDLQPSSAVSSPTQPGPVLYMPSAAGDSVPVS

B1: ENSG00000124766:be:win_1201|CDS|ENSG00000124766|bound_else_gene|NA|bound_elsewhere_windowed (ssRNA)
RNA: GGGAGUUCUACAGUCCGACGAUCUUCGAAGACGACCUGCUCGACCUGAACCCCAGCUCAAACUUUGAGAGCAUGUCCCUGGGCAGCUUCAGUUCGUCGUCGGCGCUCGACCGGGACCUGGAUUUUAACUUCGAGCCCGGCUCCCAACAGAGGAUUGAGCAUCA
B2: chr6:43013266:43013367:-|CDS|ENSG00000124733|msi1|FALSE|bound_elsewhere (ssRNA)
RNA: GGGAGUUCUACAGUCCGACGAUCAUCCCUGUCCUACCGCCUCCCUGUUCUUGCAGCCCCUGCCCGGAUGGCAACAGUAGUUCUAGGAGGAGACACCAUGGGCCCUGAGCGUAUCUUCCCCAAUCAGACUGAGGAACUGGGACACAACAGAGGAUUGAGCAUCA
B3: chr10:89774496:89774597:+|3pUTR|ENSG00000138182|msi1|total|mutant (ssRNA)
RNA: GGGAGUUCUACAGUCCGACGAUCAAGAUCUCAAGUCUUUAAUCCGAAUGUCUCACUUAUUUUGUAAACAUUUUGUGGGUACACCGUACAUGUAUAUAUUUACGGGGUAUGUGAGAUGUUUUGACACAGGCAUGCAAUGUGAAACAACAGAGGAUUGAGCAUCA
B4: chr5:138349049:138349150:+|3pUTR|ENSG00000120709|msi1|total|mutant (ssRNA)
RNA: GGGAGUUCUACAGUCCGACGAUCGAGAAGGUCUACAGUUAUCAUUAUUUUAAUUCCAUUACUUUCAGUCUGGAAAACUAAGCCCGUCAGAACUGUCAUCUUGCUUCCCAAUCUAAGAACCUGUGGCCCUGGAACACUUUUCAACAACAGAGGAUUGAGCAUCA
B5: chr11:124038068:124039001:-|CDS|ENSG00000182634|control|control|control (ssRNA)
RNA: GGGAGUUCUACAGUCCGACGAUCCAACGAGAUGGUCAUCUUUGUGAAUAUUGGGCUAGUGGCCUCGGGCUGCUUUGUCCUGAUAGUGCUGUCCUAUGUGUCCAUCGUCUGUUCCAUCCUGCGGAUCCGCACCUCAGAGGGGAGCAACAGAGGAUUGAGCAUCA
B6: chr20:35286537:35287972:-|CDS|ENSG00000125998|control|control|control (ssRNA)
RNA: GGGAGUUCUACAGUCCGACGAUCAAUCUCGGCAAGCUAGGGGCAUACCCAUGGUCCCAGUCCUCCCCUGCCCUCAACCAUAAUAGUACCAGCCCCUUAACCUUGGCAGUGGGGUCACCUCUGCUUCCUCGCUCCCGGCCCCUCCAACAGAGGAUUGAGCAUCA
B7: chr5:173316221:173316322:-|3pUTR|ENSG00000113739|msi1|total|mutant (ssRNA)
RNA: GGGAGUUCUACAGUCCGACGAUCAGUACUUUCAGUUUGGCGAGCCGUGAGGUCUCUGUCGAAACUACUCAACUCUGCCGUCCCCGCACAAAAGCAGCCACCGACAACACACAAACGAGAGGGCUUGGCUCCCUUCCAGGAAGACAACAGAGGAUUGAGCAUCA
B8: ENSG00000198589:be:win_2701|CDS|ENSG00000198589|bound_else_gene|NA|bound_elsewhere_windowed (ssRNA)
RNA: GGGAGUUCUACAGUCCGACGAUCGCAGUCAAAUAUGAGUGGGGUGGCUGGCGUGUAUGGGUAGACACUUUAUCAAUCACUCAUUCAAAGGUCACUUUUGAAAUACACAAAGAAAACCUUGCCAAUAUAUUUAGGGAACAGCAACAACAGAGGAUUGAGCAUCA
B9: chr6:17764380:17764481:-|CDS|ENSG00000137177|msi1|FALSE|unique (ssRNA)
RNA: GGGAGUUCUACAGUCCGACGAUCCCAGAGCAUCCCUGAGAAAAACUCCAAAUCACUGUGCAGGACUGGCUCAUGUUCAGAACUAGAUGCCUGCCCCAGCAAAAUUAGCCAGCCAGCCAGGGGAUUCUGCCCCAGGGAGGUGACCAACAGAGGAUUGAGCAUCA
B10: chr18:49591392:49591493:+|3pUTR|ENSG00000101670|msi1|FALSE|unique (ssRNA)
RNA: GGGAGUUCUACAGUCCGACGAUCCCUUCUUAGUUAUUAUGUGCCACCUCCCCUAUGAGUGACGUGUUUGAUCACUAGCAGAAUAGCAAGCAGAGUAUCAUUCAUGCUGGGGCCAGAAUGAUGGCCGGUUGCCAGAUAUAACUGCAACAGAGGAUUGAGCAUCA
B11: ENSG00000198589:be:win_5551|CDS|ENSG00000198589|bound_else_gene|NA|bound_elsewhere_windowed (ssRNA)
RNA: GGGAGUUCUACAGUCCGACGAUCGUGGAAUUGGUUAUGCUACUGUGUUCUCAGGAGUGGCAAAAUUCUAUUCAGAAGAAUGCAGGCCUUGCUUUUAUCGAACUUGUCAAUGAAGGAAGGUUGCUUAGCCAGACAAUGAAGGAUCAACAGAGGAUUGAGCAUCA
B12: chr6:7881277:7881391:+|3pUTR|ENSG00000153162|unk|FALSE|unique (ssRNA)
RNA: GGGAGUUCUACAGUCCGACGAUCGCUGUUUAUGAACGGAAAUCAUGAUUUCCCUUGUAGAAAGUGAGGCUCAGAUUAAAUUUUAGAAUAUUUUCUAAAUGUCUUUUUCACAAUCAUGUACUGGGAAGGCAAUUUCAUACUAAACAACAGAGGAUUGAGCAUCA
B13: chrX:65740646:65740790:+|3pUTR|ENSG00000147065|msi1|total|mutant (ssRNA)
RNA: GGGAGUUCUACAGUCCGACGAUCGGCCAUUCUAUUGUGGCAAGGCUGAGCCGAAGAUCCUACCCCAAUUCCUUGCCGGAGUACCGGCCGGUCUAAAGUGAGCUCUAUGGGCAGAUCUACCCCUUACUUAUUAUUCCAGAUCUGCAACAGAGGAUUGAGCAUCA
B14: chr2:73228009:73228453:-|three_prime_utr|ENSG00000135617|control|control|control (ssRNA)
RNA: GGGAGUUCUACAGUCCGACGAUCUAAGUGACUCUGAGCUGGGAAGGGGAAACCCAGGAAUUUUGCUACUUGGAAUUUGGAGAUAGCAUCUGGGGACAAGUGGAGCCAGGUAGAGGAAAAGGGUUUGGGCGUUGCUAGGCUGAACAACAGAGGAUUGAGCAUCA
B15: chr11:44260439:44264853:-|three_prime_utr|ENSG00000052850|control|control|control (ssRNA)
RNA: GGGAGUUCUACAGUCCGACGAUCGACACCAUGGGCCACGCCCAUGUUUUCCAGGCCCCCAGCCUCCCACUCGACUUUCCUCUUAGGAACCUGGCCUGGGCCAGGGGCCUGACCCUCAGCACUUUCAGCCGCCCCAAGUCUGAGCAACAGAGGAUUGAGCAUCA
B16: chr16:46798953:46799054:-|3pUTR|ENSG00000155330|unk|FALSE|unique (ssRNA)
RNA: GGGAGUUCUACAGUCCGACGAUCUCUAUAUUUUUUUCUUUGCCUUAUUGCACUGGUUGGGACUUUUUGCCUUGAUCCAGUUGUAGGGGGGAAACAUUCAGUCAUUAAGCAUUAAAUAACUUUGUUGUUGUUGUGGGCUUGAAACAACAGAGGAUUGAGCAUCA
B17: chr22:31279490:31279591:+|3pUTR|ENSG00000182541|msi1|FALSE|unique (ssRNA)
RNA: GGGAGUUCUACAGUCCGACGAUCAGCAGCUUGGGCUGGGAAGAGGUGGUGGCAGAGUCUCAAAGCUGAGAUGCUGAGAGAGAUAGCUCCCUGAGCUGGGCCAUCUGACUUCUACCUCCCAUGUUUGCUCUCCCAACUCAUUAGCAACAGAGGAUUGAGCAUCA
B18: chr3:133826890:133826991:-|3pUTR|ENSG00000154917|unk|total|mutant (ssRNA)
RNA: GGGAGUUCUACAGUCCGACGAUCUUUGAACGUGUUUCAGAUGUCAUGUGUUCCGUUUUUAUAUGUGUGUACAUAAUUAUAUACCGAGACCGACUUGUGUAUACACCUUCCACAAACACAUCCUCACGGAGAUACAUGUGCUCACAACAGAGGAUUGAGCAUCA
B19: chr9:15474029:15474130:-|CDS|ENSG00000164985|unk|total|mutant (ssRNA)
RNA: GGGAGUUCUACAGUCCGACGAUCAAGAAAAGAGCCGGAUAAAAAAGAGGGGAAGAAAGAAGUUGAAUCAAAAAGGAAAAAUUCCGCUAAAACAGGGGUUACUUCAACCUCCGAUUCUGAAGAAGAAGGAGAUGAUCAAGAAGGCAACAGAGGAUUGAGCAUCA
B20: chr10:15513953:15517157:-|three_prime_utr|ENSG00000077943|control|control|control (ssRNA)
RNA: GGGAGUUCUACAGUCCGACGAUCUAAGUUGCAGUCCAGAUCAAUCCAGCAUAAGUUGCAGAGAUGAAAUGUCUGAAUCACUAUAGAAUUUACAAGGUGAACUAAGGUGAAAUGACUGAUUUACUAUAGAACUUAGAACUAAGACAACAGAGGAUUGAGCAUCA
B21: chr1:51919672:51919773:-|3pUTR|ENSG00000169213|unk|FALSE|unique (ssRNA)
RNA: GGGAGUUCUACAGUCCGACGAUCUAUUCUUUGCCUGCCCCUGGGGUUCUCUGCAGAUGGUCCCAGUAAUAGAUACUCAGCACUAGACUAACAUAACAGGUCACUACACGGGUGCAGAAUCACUUUACAAAAGAAGACUCUGUUCAACAGAGGAUUGAGCAUCA
B22: chr13:35475095:35475222:-|CDS|ENSG00000180660|unk|FALSE|unique (ssRNA)
RNA: GGGAGUUCUACAGUCCGACGAUCGCUGCAACUUAUCUCCUGCCUGCAGUGCCGGCGGUGUCCCCACUACUUUCUACCGAACUUAGAUCUGUUUCAAGGCAAACCUCACUCAGCUCUGGAAAACGCUGCCAAACAAACGUGGCGCAACAGAGGAUUGAGCAUCA

Molecular target: T1, UNK ZnF1-6 (called full-length)
Test: nsRBNS (natural sequence RNA bind-n-seq); RBNS binding buffer (assumed for nsRBNS): 25 mM Tris pH 7.5, 150 mM KCl, 3 mM MgCl2, 0.01% Triton X-100, 500 ug/ml BSA, 20 U/ml SUPERase-In, 4 C; UNK is unkempt and MSI1 is Musashi-1; names of the RNAs are library labels; protein concentration not given here; high values mean tight binding

Binder	binding signal
B1	0.718 enrichment R
B2	0.841 enrichment R
B3	0.313 enrichment R
B4	0.564 enrichment R
B5	0.705 enrichment R
B6	1.22 enrichment R
B7	0.934 enrichment R
B8	1.22 enrichment R
B9	0.853 enrichment R
B10	1.48 enrichment R
B11	0.469 enrichment R
B12	0.528 enrichment R
B13	0.632 enrichment R
B14	1.09 enrichment R
B15	0.652 enrichment R
B16	0.79 enrichment R
B17	0.852 enrichment R
B18	0.302 enrichment R
B19	0.66 enrichment R
B20	0.361 enrichment R
B21	0.854 enrichment R
B22	0.714 enrichment R
